From article PMC11061317
Results are given in words; binding and its absence hold for the method and conditions named. For part of these data: Binding seen in cells or lysates may run through a third protein. Some entries that bind do so weakly or less than the wild type. One block for each substance: values may come before it.

What was measured:
[1] = biological target: exogenously expressed Rheb (UniProt Q15382); experiment: co-IP; exogenously expressed Rheb, with or without insulin; Supplementary Fig. S3a, b, not shown
[2] = biological target: SFB-tagged ATP6AP1 SP-TM-C-tail (UniProt Q15904); experiment: co-IP; lysates of HEK293T cells transiently co-expressing GST-tagged Rheb-G63V and SFB-tagged WT or mutant ATP6AP1; IP with anti-Flag antibody, immunoblot
[3] = biological target: SFB-tagged ATP6AP1 C-tail (30); experiment: as above
[4] = biological target: SFB-tagged ATP6AP1 (wild type, full length) (UniProt Q15904); experiment: co-IP; HEK293T cells stably expressing SFB-tagged ATP6AP1 or GFP, serum starved, with or without insulin for 15 min; IP with anti-Flag antibody, immunoblot
[5] = biological target: GST-tagged Rheb-G63A expressed in HEK293T (UniProt Q15382); experiment: pull-down; HEK293T cells transiently co-expressing GST-tagged WT or mutant Rheb and SFB-tagged WT or mutant ATP6AP1; GST pull-down and western blot; GST-GFP as negative control
[6] = biological target: GST-tagged wild-type Rheb expressed in HEK293T (UniProt Q15382); experiment: as above
[7] = biological target: GST-tagged Rheb-G63V expressed in HEK293T (UniProt Q15382); experiment: as above
[8] = biological target: biotinylated synthetic peptide of the ATP6AP1 C-tail (12) with the Q468G mutation (UniProt Q15904); experiment: condition: 1 µg recombinant protein with peptide at a 1:5 molar ratio in 300 µL; pull-down; recombinant Rheb (1 ug) and biotinylated C-tail peptide at a 1:5 molar ratio in 300 uL NETN buffer (40 mM Tris-HCl, 100 mM NaCl, 0.5% NP-40, 1 mM EDTA, 10% glycerol) with 15 uL streptavidin beads, 2 h at 4 °C; SDS-PAGE and immunoblot; both purified

binding [1]: binds
Substance: ATP6AP1 co-immunoprecipitated with exogenously expressed Rheb (from UniProt Q15904 42-470)

binding [4]: binds
Substance: Rheb (endogenous, HEK293T) (from UniProt Q15382 1-184)

The next lines start with the substance.

Substance: GST-tagged Rheb-G63V expressed in HEK293T (from UniProt Q15382 1-184)
binding [2]: binds | binding [3]: binds

Substance: SFB-tagged ATP6AP1 (wild type, full length) (from UniProt Q15904 42-470)
binding [5]: binds | binding [6]: binds | binding [7]: binds

Substance: SFB-tagged ATP6AP1 with Q468 mutated (from UniProt Q15904 42-470)
binding [7]: no binding

Substance: bacterially purified GST-tagged Rheb (from UniProt Q15382 1-184)
binding [8]: no binding
